{"source": "the supplement of paper PMC11417369", "note": "Some of the results follow."}
{"system": "PfAP2-HC AP2 domain (GST-tagged)", "assay": "gcPBM binding intensity (ln(normalized median fluorescence intensity)); higher = stronger DNA binding", "summary_of_the_method": "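Alexa488 anti-GST antibody, scanned at 488 nm, detected GST-tagged P. falciparum DNA-binding domains that had been expressed in E. coli and incubated for 1 h on an Agilent 4 × 180k array. The array carried primer-extended double-stranded 36-bp intergenic genomic probes and negative controls. Binding intensity is the highest Masliner-normalised natural-log median intensity across replicate spots of either orientation of each probe.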"}
{"sequence": "TTCCTAATTGACAACACACACAACAAAAAAGGGATT [CACACA_site1279]", "gcPBM binding intensity (ln)": 10.2}
{"sequence": "TACCTTTTTTGTTTTATGCACACCATATAACCAAGG [CACACA_site30]", "gcPBM binding intensity (ln)": 9.77}
{"sequence": "TAAAAAAAAAAAAAAGCATGCTATATTATATTACAC [TGCATGCA_site241]", "gcPBM binding intensity (ln)": 9.62}
{"sequence": "AAGAAATATTTATACACACACACAAACATATAAATA [CACACA_site6981]", "gcPBM binding intensity (ln)": 11.1}
{"sequence": "TATAACTATTCACAGACATGCACATAATAACAATAA [TGCATGCA_site207]", "gcPBM binding intensity (ln)": 9.7}
{"sequence": "TTTTTTTTTCCGTGTTGTACAAAAAAAAAGATTTTG [XGTACX_site3925]", "gcPBM binding intensity (ln)": 9.4}
{"sequence": "AGTCTGAATAAAATTACACACATATACATATATATA [CACACA_site1780]", "gcPBM binding intensity (ln)": 9.78}
{"sequence": "TAAATATATTAAGCTTGTACATGAAAAAAAAAAAAA [XGTACX_site3264]", "gcPBM binding intensity (ln)": 9.47}
{"sequence": "AAAAAAAAAAAAAAAACACACAATAAAGTAAAATTT [CACACA_site135]", "gcPBM binding intensity (ln)": 9.66}
{"sequence": "ATATATAAATTTTAGTGTACATTAATTTTTTTTTTT [XGTACX_site7782]", "gcPBM binding intensity (ln)": 9.64}
{"sequence": "TATGTATATAAATTAACACACATATGTGGTTAATAG [CACACA_site3143]", "gcPBM binding intensity (ln)": 9.64}
{"sequence": "TATATTTATTTATATACACACATATTTATAAATATA [CACACA_site7047]", "gcPBM binding intensity (ln)": 9.69}
{"sequence": "AGATTTAAATATCATACACACTTTATCTATAATACA [CACACA_site6581]", "gcPBM binding intensity (ln)": 9.61}
{"sequence": "TAGTTGTTTATAACACGTTGACAGAAATGTTATGTA [GTGCAC_negctrl_site624]", "gcPBM binding intensity (ln)": 9.55}
{"sequence": "CAAAATTGACATGACGCACACAAGTGTAGATATTTT [CACACA_site1250]", "gcPBM binding intensity (ln)": 9.97}
{"sequence": "GTACAAAAATAAATTGCACACATTTTAATAAAAAAA [CACACA_site2130]", "gcPBM binding intensity (ln)": 9.75}
{"sequence": "ATTTTTTTTTTTAAATGTACATAATATATATATAAT [XGTACX_site2686]", "gcPBM binding intensity (ln)": 9.54}
{"sequence": "TCTCTCTTATAAAATACACACGAACAATCATATTAT [CACACA_site8065]", "gcPBM binding intensity (ln)": 9.68}
{"sequence": "AAAAAAATTTGTATCACACACGTATTATAAAAAAAT [CACACA_site4182]", "gcPBM binding intensity (ln)": 9.89}
{"sequence": "TATTCGTGCAATAATGGTACACTTATAAATTATTCA [XGTACX_site1430]", "gcPBM binding intensity (ln)": 9.56}
{"sequence": "TATTAAACTAAATGTAGTACATACACAAACGTAATC [XGTACX_site4905]", "gcPBM binding intensity (ln)": 9.71}
{"sequence": "CGAACATTATAAATGTCATTTTTTCCAACTTGATCT [GTGCAC_negctrl_site501]", "gcPBM binding intensity (ln)": 9.55}
{"sequence": "AAGCATTTCCATGGTGGTACTATACAAATAATAATT [XGTACX_site6193]", "gcPBM binding intensity (ln)": 9.52}
{"sequence": "TATAAATAATGTTAAACACACATACCGATATATAAC [CACACA_site7306]", "gcPBM binding intensity (ln)": 9.83}
{"sequence": "AGTGTATTTTTATGTTGTACATGTAATATTTTTGAT [XGTACX_site541]", "gcPBM binding intensity (ln)": 9.84}
{"sequence": "TATATAATATATTAATGTACGTTATATGTATTCCTT [XGTACX_site6140]", "gcPBM binding intensity (ln)": 9.93}
{"sequence": "CTTTTTTTTTAAATATCACACACATATAATATATTC [CACACA_site9222]", "gcPBM binding intensity (ln)": 10}
{"sequence": "TACAGATATTCATATAAACACACATACAAATTATGT [CACACA_site7929]", "gcPBM binding intensity (ln)": 9.88}
{"sequence": "TAATTCATCATATGCACACACAATACCAAAATGTGC [CACACA_site191]", "gcPBM binding intensity (ln)": 10.1}
{"sequence": "AAACAGAATGCATATACACACATACAAAAAAGTGCA [CACACA_site6591]", "gcPBM binding intensity (ln)": 10}
{"sequence": "TGTGTACCGATATTAAGTTTAACGTTATAAAAATAT [CACACA_negctrl_site1547]", "gcPBM binding intensity (ln)": 9.55}
{"sequence": "TTTCTAAACCGGTACAGTACATATAAAAATAGAATA [XGTACX_site6662]", "gcPBM binding intensity (ln)": 9.7}
{"sequence": "AAAGGACAAAAAAATGCATGCCGTTAAATTATGTAC [TGCATGCA_site512]", "gcPBM binding intensity (ln)": 9.68}
{"sequence": "TATGTGGCACAAAAGGGTACATATAATTTATACAGG [XGTACX_site5499]", "gcPBM binding intensity (ln)": 9.71}
{"sequence": "CATCATAGCATTCCTCGTACAAATATAAACATATCA [XGTACX_site2711]", "gcPBM binding intensity (ln)": 9.53}
{"sequence": "CATATACACGAACACACACACATATATATATATATA [CACACA_site4437]", "gcPBM binding intensity (ln)": 10.5}
{"sequence": "TAGTAAATAACAAAAGGAAAAATTAATGAGGCAAAA [TGCATGCA_negctrl_site526]", "gcPBM binding intensity (ln)": 9.78}
{"sequence": "ATGTTTTGTAAAATGATTAAATATTAAGATTCAATA [CACACA_negctrl_site1743]", "gcPBM binding intensity (ln)": 9.44}
{"sequence": "CTTAGAGTATTTAAATGTACACGTTTGTATATGTAT [XGTACX_site1767]", "gcPBM binding intensity (ln)": 9.73}
{"sequence": "TAATGAGGAAAAAGTGTGTTAAGATTTTATAATTTA [GTGCAC_negctrl_site608]", "gcPBM binding intensity (ln)": 9.55}
{"sequence": "TAAAAAAAAATAAATACATGCATATAATACATTATA [TGCATGCA_site518]", "gcPBM binding intensity (ln)": 9.62}
{"sequence": "TATCATATAAATACATGTACATATTTGGAAAATAAT [XGTACX_site5373]", "gcPBM binding intensity (ln)": 9.64}
{"sequence": "ATATATATATTAACAATACACACGTGTATACCTTAT [CACACA_site2217]", "gcPBM binding intensity (ln)": 9.83}
{"sequence": "TGAACATGTTAAAATAAACACACAGCTAAGGTTTTT [CACACA_site7934]", "gcPBM binding intensity (ln)": 9.8}
{"sequence": "TCAGTTAATGTATATGTACACACGGGGTGTATATAT [CACACA_site9103]", "gcPBM binding intensity (ln)": 9.81}
{"sequence": "ATATATATATTAAGGGGTACGTAAAAAATTGGGAAG [XGTACX_site7322]", "gcPBM binding intensity (ln)": 9.77}
{"sequence": "AAATTATATCCCCTTTGTACTTACAGATCTTTATAC [XGTACX_site8163]", "gcPBM binding intensity (ln)": 9.78}
{"sequence": "ATAAATAAATACATATGTACATATATATATATATAT [XGTACX_site7145]", "gcPBM binding intensity (ln)": 10.1}
{"sequence": "ATAAAATACAGATAAACACACATATAAACACCCATA [CACACA_site5381]", "gcPBM binding intensity (ln)": 10.4}
{"sequence": "CTTTATTTTTTATACACACACAATATGTATAAATAT [CACACA_site7638]", "gcPBM binding intensity (ln)": 9.97}
{"sequence": "TACATATTTTTTATGTGTACATATTTTTTATGTGTG [XGTACX_site444]", "gcPBM binding intensity (ln)": 9.89}
{"sequence": "TTCTTTTTTCTTTATGGTACGTGTAATATATATCAA [XGTACX_site7960]", "gcPBM binding intensity (ln)": 9.76}
{"sequence": "CCCAATAATTAAACAACACACATATATATATGTAAT [CACACA_site3084]", "gcPBM binding intensity (ln)": 9.79}
{"sequence": "AATGTGAAATATAAATGTACATAAATATATATATAT [XGTACX_site8710]", "gcPBM binding intensity (ln)": 9.98}
{"sequence": "AAAATATAAATATATTGTACTGTTATATAATAAAAT [XGTACX_site2132]", "gcPBM binding intensity (ln)": 9.62}
{"sequence": "TAACTATCATGTATTACACACAATATTTATTATAGA [CACACA_site7301]", "gcPBM binding intensity (ln)": 9.68}
